# Data taken from PubChem BioAssay AID1159614 (National Center for Advancing Translational Sciences (NCATS), 2016).
# Among all 45,000 compounds or so, about 65 (0.1%) were called active. The call rests on the fitted dose curve; in most records, active means well fitted activation curve with a large enough effect; inconclusive means small, poorly fitted or top-dose-only effect; inactive means no such curve, though single readings can be large or run the other way. The list shows a part of the results.
# Target: Galactocerebrosidase (Homo sapiens) (UniProt P54803)
# UniProt P54803, sequence (P54803 whole entry, looked up): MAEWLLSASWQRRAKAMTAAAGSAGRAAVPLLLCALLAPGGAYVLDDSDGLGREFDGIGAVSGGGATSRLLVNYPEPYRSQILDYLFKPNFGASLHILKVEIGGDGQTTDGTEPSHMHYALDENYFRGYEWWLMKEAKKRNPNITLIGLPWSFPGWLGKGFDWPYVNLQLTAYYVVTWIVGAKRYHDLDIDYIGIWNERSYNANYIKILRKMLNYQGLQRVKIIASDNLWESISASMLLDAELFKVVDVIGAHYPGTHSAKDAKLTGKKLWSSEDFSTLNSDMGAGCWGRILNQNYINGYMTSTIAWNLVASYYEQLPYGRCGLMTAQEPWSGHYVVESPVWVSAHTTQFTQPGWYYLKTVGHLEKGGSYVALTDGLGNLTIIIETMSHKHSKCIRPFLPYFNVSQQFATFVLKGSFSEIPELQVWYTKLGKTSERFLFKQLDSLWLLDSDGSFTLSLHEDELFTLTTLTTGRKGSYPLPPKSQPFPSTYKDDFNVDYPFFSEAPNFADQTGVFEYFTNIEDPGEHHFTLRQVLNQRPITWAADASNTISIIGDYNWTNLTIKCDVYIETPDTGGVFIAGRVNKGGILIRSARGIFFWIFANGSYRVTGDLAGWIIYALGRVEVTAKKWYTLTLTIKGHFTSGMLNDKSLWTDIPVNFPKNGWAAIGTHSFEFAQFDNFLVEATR
# Experiment: A Novel Cell-Based Assay to Identify Small Molecules for B -Galactocerebrosidase; further: 0% is about no effect; nearly all actives have a fitted effect of over 65% in size
# Settings: 145M-Twi-hGALC-G270D cells (Twitcher mouse brain line with human GALC G270D), HMU-beta-Gal fluorescence, 48 h; series mostly up to 57.5 µM; activation: at the top concentration
# Method in brief: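 Brain-derived Twitcher mouse 145M-Twi cells stably expressing human GALC-G270D or wild-type GALC, treated live, then residual GALC activity read by fluorescence of HMU-b-Gal substrate (0.1 mM final) in citrate-phosphate buffer pH 5.2 with sodium taurocholate. Signal increase indicates enhancement.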
row,SMILES,activation
1,CCOc1ccc(NC(=O)C2CCN(S(=O)(=O)c3c(C)noc3/C=C/c3cccs3)CC2)cc1,inactive: -12.2%
2,CCOC(=O)c1[nH]c(C)c(CCC(=O)Nc2cccc(SC)c2)c1C,inactive: -8.42%
3,COc1ccc2cc(CNc3ccc(OC)c(OC)c3)c(=O)n(CC(=O)Nc3ccccc3F)c2c1,inactive: -18.6%
4,Cc1cccc(C)c1NC(=O)Cn1c(SCC(=O)NCc2ccccc2)nc2ccccc21,inactive: -10.3%
5,Cc1ccc(NC(=O)c2ncoc2-c2ccco2)cc1Cl,inactive: -17.8%
6,Cc1cc(=O)[nH]c2nnc(SCc3ccc(C(F)(F)F)cc3)n12,inactive: -22%
7,Fc1cccc(Cl)c1CNCCSc1nnnn1-c1ccccc1,inactive: -27.4%
8,CC(C)CCNC(=O)c1ccc2c(c1)N(Cc1ccccc1F)C(=O)c1ccccc1S2(=O)=O,inactive: -2.22%
9,O=C(Nc1cc2ccc(O)cc2oc1=O)c1ccccc1,inactive: -20.9%
10,O=S(=O)(c1ccc(-c2csc(=Nc3ccc(OC(F)(F)Cl)cc3)n2CCCO)cc1)N1CCCC1,inactive: -17%
11,O=C(CNC(=O)c1ccccc1F)OCc1cc(=O)n2nc(C3CCCCC3)sc2n1,inactive: 2.21%
12,COc1cccc(C(=O)N(Cc2ccco2)c2ccccn2)c1,inactive: -10.2%
13,COc1ccc(OC)c(NC(=O)CSC2=Nc3ccccc3C3=NC(CC(=O)NCc4ccc(F)cc4)C(=O)N23)c1 (centres undefined),inactive: -11.3%
14,COc1ccc(C2CC(=O)c3c([nH]c(C(=O)OC4CCCCCC4)c3C)C2)cc1 (centres undefined),inactive: -21.2%
15,COc1cccc(OCC(=O)NC2CC(=O)N(c3ccc4c(c3)OCCO4)C2)c1 (centres undefined),inactive: -0.445%
16,COC(=O)c1ccccc1NC(=O)c1cc(C)nc2c1c(C)nn2-c1ccc(C)cc1,inactive: -10.3%
17,CC(C(=O)O)c1ccc(C(=O)c2ccccc2)s1 (centres undefined),inactive: -13.4%
18,COc1ccc2c(c1)c1c(c(=O)n(-c3ccc(OC)c(OC)c3)c(=O)n1CC(=O)N1CCCC1)n2C,inactive: 24.3%
19,Cc1ccc(CNC(=O)CSc2ncc(S(=O)(=O)c3ccc(C)c(Cl)c3)c(=O)[nH]2)cc1,inactive: -13.4%
20,Cc1ccc(NC(=O)N2CCN(c3nnc(C)c4c(C)n(-c5ccc(Cl)cc5)nc34)CC2)c(C)c1,inactive: -6.71%
21,O=C(Nc1ccccc1O)c1cc(S(=O)(=O)N2CCCC2)ccc1Cl,inactive: -10.8%
22,Cc1ccc(Cl)cc1NC(=O)NCc1cccn1Cc1ccc(F)cc1,inactive: -11.2%
23,Cc1ccc2nc(-c3ccc(NC(=O)c4ccccc4S(C)(=O)=O)cc3)sc2c1,inactive: -6.62%
24,COc1ccc(-c2nc(C)c(CCNC(=O)c3c(F)cccc3F)s2)cc1,inactive: -31.7%

row,SMILES,activation
1,CCOc1ccc(OCC)c(NC(=O)CCc2nc3cccnc3n2Cc2cccs2)c1,inactive: -4.7%
2,Cc1ccc(C)c(Cn2c(=O)n(CCC(=O)NCc3ccc4c(c3)OCO4)c(=O)c3sccc32)c1,inactive: -12.8%
3,Cc1cccc(Cc2c(C)nc3nc(SCc4ccccc4Cl)nn3c2C)c1,inactive: -1.3%
4,CN(C)c1ccc(CNC(=O)c2cnc3sc(N4CCCCCC4)nn3c2=O)cc1,inactive: 1.16%
5,COC(=O)N1CCCc2cc(S(=O)(=O)N3CCN(c4ccccc4)CC3)ccc21,inactive: -17.1%
6,CCCCNC(=O)CCCn1c(=O)c2ccccc2n(Cc2c(C)cc(C)cc2C)c1=O,inactive: -6.27%
7,COc1cc(Cl)c(C)cc1NC(=O)CSc1nc2c(c(=O)[nH]1)CCCC2,inactive: -9.12%
8,COc1ccc(C(=O)c2cn(Cc3cccc(C)c3)c3cc4c(cc3c2=O)OCO4)cc1,inactive: -10.2%
9,CS(=O)(=O)n1nc(-c2ccco2)nc1NCc1ccccc1Cl,inactive: -27.9%
10,COc1ccc(CC(=O)NCCc2csc(-c3ccc(C(F)(F)F)cc3)n2)cc1,inactive: -9.83%
11,CCc1ccccc1NC(=O)Cn1c(=O)n(CC(=O)NCCc2ccccc2)c(=O)c2ccccc21,inactive: -10.2%
12,CCOC(=O)c1[nH]c(C)c(C(=O)NCc2cccc(OC)c2)c1C,inactive: -9.55%
13,COc1cc(Cl)c(C)cc1NC(=O)CSc1cc(-c2ccccc2)nc(C)n1,inactive: -12.2%
14,COc1ccc(C2CC(=O)Nc3c2c(=O)n(C)c2nc4ccccc4n32)cc1 (centres undefined),inactive: -7.36%
15,COc1ccc(-c2noc(-c3ccc(C)cc3Cl)n2)cc1OC,inactive: -11.6%
16,Cn1c(=O)c2c(SCC(=O)NCc3ccc(F)cc3)nc(-c3ccccc3Cl)nc2n(C)c1=O,inactive: -1.98%
17,Cc1ccc(NS(=O)(=O)c2ccc3c(c2)[C@H]2C=CC[C@H]2[C@@H](c2ccc(F)cc2)N3)cc1C,inactive: -9.55%
18,COC(=O)c1sc2cccc(F)c2c1S(=O)(=O)Nc1ccc(C)cc1Cl,inactive: -3.96%
19,Cc1c(/C=C(\C#N)C(=O)Nc2cccc(Cl)c2)c2ccccc2n1Cc1ccccc1,inactive: -23.3%
20,Cc1ccc(SCc2nc(-c3ccc(C(=O)Nc4cc(C)ccc4C)cc3)oc2C)cc1,inactive: -18.3%
21,O=C(Nc1nnc(C2CC(=O)N(c3ccc(Cl)cc3)C2)s1)c1ccco1 (centres undefined),inactive: -10.9%
22,O=C(Nc1ccc2[nH]c(=O)c(=O)[nH]c2c1)c1cccc(F)c1,inactive: -15%
23,COc1ccccc1N1CCN(C(=O)CCn2nc(C)c(S(=O)(=O)N3CCCC3)c2C)CC1,inactive: -7.95%
24,NC(=O)NS(=O)(=O)c1ccc(N)cc1,inactive: -16.2%

row,SMILES,activation
1,Cc1ccc(NC(=O)CSc2nc3ccc(NC(=O)COc4ccc(C)cc4)cc3s2)cc1,inactive: -20.5%
2,Cc1nc2nc(SCC(=O)NCCc3ccc(Cl)cc3)nn2c(C)c1Cc1ccccc1Cl,inactive: -10.3%
3,Cc1ccccc1C1=CCN(c2ncc(NC(=O)c3ccc(Cl)cc3)cc2C(=O)O)CC1,inactive: -18%
4,Cc1nc2c(-c3ccccc3)c(C)nn2c(C)c1CCC(=O)Nc1ccccc1F,inactive: 3.72%
5,CCOC(=O)c1scc(-c2ccc(C)cc2)c1S(=O)(=O)N1CCN(c2ccccc2)CC1,inactive: -1.82%
6,Cc1cc(C)cc(NC(=O)C2CCN(c3nnc(-n4c(C)ccc4C)s3)CC2)c1,inactive: -0.699%
7,COc1ccc(S(=O)(=O)N(CC(=O)Nc2ccc(C)cc2)c2ccc(C)cc2)cc1OC,inactive: -23.8%
8,CC(=O)c1ccc(NS(=O)(=O)c2ccc3[nH]c(=O)[nH]c3c2)cc1,inactive: -8.51%
9,COc1ccc(-n2c(SCC(=O)Nc3ccc4c(c3)OCO4)nc3c([nH]c4ccccc43)c2=O)cc1,inactive: -12.7%
10,CCOc1cc(C(=O)Nc2ccc3nc(N4CCN(C)CC4)cc(C)c3c2)cc(OCC)c1OCC,inactive: -10.7%
11,CCc1cccc(NC(=O)CN(C)S(=O)(=O)c2ccc3c(c2)n(C)c(=O)c(=O)n3C)c1,inactive: -5.55%
12,COc1ccc(-c2noc(COc3ccc(C)cc3C)n2)cc1OC,inactive: -17.4%
13,CCOc1ccccc1NC(=O)CN(c1cc(C)cc(C)c1)S(=O)(=O)c1c(C)nn(C)c1C,inactive: -11.3%
14,Cc1cc(C)c(Cn2cnc3nc4c(cc3c2=O)CCCC4)c(C)c1,inactive: -32.5%
15,O=C(CN1C(=O)c2ccccc2Sc2ncccc21)Nc1cccc(C(F)(F)F)c1,inactive: -19.7%
16,Cc1cccc(N2CCN(C(=O)CCNS(=O)(=O)c3ccc4c(c3)CCN4C(=O)C3CC3)CC2)c1C,inactive: -35.9%
17,COc1ccc2nc(NC(=O)c3nc(S(=O)(=O)Cc4ccc(C)cc4)ncc3Cl)sc2c1,inactive: -26.2%
18,COc1cccc(CNC(=O)C2=C(C)C(=O)OC23CCCCCC3)c1,inactive: -11.4%
19,COc1ccc(Nc2cc(C)c3cc(NC(=O)COc4cccc(C)c4)ccc3n2)cc1,inactive: -9.7%
20,CCOc1ccc(S(=O)(=O)N(CC(=O)Nc2ccc(OC)c(Cl)c2)c2ccccc2)cc1,inactive: -16%
21,Cc1ccc(-c2nnc(Nc3ccc(O)cc3)c3ccccc23)cc1S(=O)(=O)NC(C)(C)CO,inactive: 26.9%
22,Cc1nn2c(C)c(C(=O)NCc3cccc(Br)c3)cnc2c1-c1ccccc1,inactive: -14.5%
23,CCOc1ccc(NC(=O)N2CCC(n3c(C)nc4cccnc43)CC2)cc1,inactive: -1.44%
24,CCOc1ccc(C(=O)NCC(c2ccc3c(c2)OCO3)N2CCN(C)CC2)cc1 (centres undefined),inactive: -9.84%

row,SMILES,activation
1,COc1ccc(Nc2nc3c(S(=O)(=O)c4ccc(C)cc4)nnn3c3ccsc23)cc1Cl,inactive: -5.77%
2,CC(=O)N1CCc2c(sc3c2c(=O)n(Cc2ccccc2)c(=O)n3Cc2ccccc2Cl)C1,inactive: -0.69%
3,Cc1ccc(/C=C/c2onc(C)c2S(=O)(=O)N2CCC(C(=O)N3CCN(c4cc(C)ccc4C)CC3)CC2)cc1,inactive: -13%
4,Cc1ccc(Cl)cc1N1CCN(C(=O)COc2cc(=O)n(C)c3ccccc23)CC1,inactive: -8.77%
5,COc1cc2c(cc1OC)C(COc1ccccc1OC)N(C(=O)c1ccc(S(=O)(=O)N(C)C)cc1)CC2 (centres undefined),inactive: -3.54%
6,CC1CCN(S(=O)(=O)c2ccc3c(c2)N(CC(=O)NC(C)(C)C)C(=O)CS3)CC1,inactive: -17.8%
7,COc1ccc(Nc2oc(/C=C/c3cc(OC)c(OC)c(OC)c3)nc2C#N)cc1,inactive: -10.5%
8,COc1cccc(CNC(=O)Cn2c(=O)nc(-c3ccccc3F)c3cc(Cl)ccc32)c1,inactive: -15%
9,CCCCN(CC)C(=O)CSc1nc2ccccc2c(=O)n1Cc1ccco1,inactive: -7.74%
10,COc1cc(-c2nc(-c3ccccc3)c(-c3ccc(Br)cc3)[nH]2)cc(OC)c1O,inactive: 3.69%
11,CCC1CCCCN1CCCNC(=O)c1c(O)nc2cc(C)ccn2c1=O (centres undefined),inactive: -6.89%
12,CC1CN(C(=O)N2CCC(C(=O)NCc3cccs3)CC2)c2ccccc2O1 (centres undefined),inactive: -19.5%
13,COC(=O)c1cc2sc(Cl)cc2n1Cc1nc(-c2ccccc2C)oc1C,inactive: -25%
14,COc1ccc(NC(=O)C2CCN(c3ccc(Sc4ccc(C)cc4)nn3)CC2)cc1,inactive: 2.93%
15,COc1ccc(NC(=O)c2ccco2)cc1NC(=O)c1cc(Br)ccc1Cl,inactive: -6.41%
16,CCOc1ccc(C(=O)c2oc3ccccc3c2NC(=O)c2cc(=O)c3ccc(C)cc3o2)cc1,inactive: -13.6%
17,COc1ccccc1C(=O)Nc1ccc(S(=O)(=O)Nc2nc(C)cc(C)n2)cc1,inactive: -3.95%
18,Cc1oc2ncnc(N3CCCCC3)c2c1C(=O)N1CCN(c2ccc(Cl)cc2)CC1,inactive: -18.3%
19,CCOC(=O)c1ccccc1NC(=O)CSc1cn(CC(=O)N2CCCCCC2)c2ccccc12,inactive: -14.9%
20,COc1ccc(S(=O)(=O)N(CC(=O)NCCc2ccccc2)c2ccc(Cl)cc2)cc1,inactive: 3.96%
21,CCCCN(CC)CCNC(=O)c1nn(C)c2c1CS(=O)(=O)c1ccccc1-2,inactive: -7.63%
22,CCc1ccc(NC(=O)CCCc2nnc3n(C(C)CC)c(=O)c4sccc4n23)cc1 (centres undefined),inactive: 5.4%
